Measured values taken from PubChem BioAssay AID757 (NMMLSC, 2007).
In all, about 190,000 compounds went through this assay and about 520 (0.27%) were called active. Inconclusive means that the source gave no clear call. Such entries were picked first, then a sample of the others.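 The calls were made as follows: active = GTP binding activity at least 20 points away from the 100% control level, either lower or higher; inconclusive = compound flagged as likely green fluorescent, judged across all proteins; inactive = the rest.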

Each compound was assayed against Ras-related C3 botulinum toxin substrate 1 (Homo sapiens) (UniProt P63000) (assay: wildtype Rac1 GTP binding modulators, primary screen, biochemical, GST-Rac1 beads, flow cytometry, multiplex (AID 757)). Details: fluorescent GTP binding, at 10 µM, actives lie on both sides, 0 = cold GTP competed, 100 = untreated.

| SMILES | GTP binding activity (% of control) |
| --- | --- |
| O=C(O)/C=C/C(=O)NC1CCS(=O)(=O)C1 (stereo not given) | inconclusive: 102% |
| C=CCn1c(C)cc(C(=O)COC(=O)/C=C/c2cccc(OC)c2)c1C | inconclusive: 90% |
| O=C(NCc1cccnc1)c1ccc(-c2cccc(Cl)c2Cl)o1 | inconclusive: 87% |
| CCC(C)(C(=O)NC1CCCC1)N(C)C(=O)c1ccccn1 (stereo not given) | inactive: 100% |
| CCOc1ccc(S(=O)(=O)N/N=C(\C)c2ccc(Cl)c(Cl)c2Cl)cc1 | inconclusive: 90% |
| N/C(=N\OC(=O)COc1cc(Cl)c(Cl)cc1Cl)c1ccccn1 | inactive: 90% |
| Cn1nc(C(=O)OCC(=O)Nc2ccc3ccccc3c2)c2ccccc2c1=O | inconclusive: 88% |
| CCCC(=O)c1cc2c(cc1NC(=O)c1ccccc1F)OCCO2 | inactive: 100% |
| O=C(NN=C1CCCC1)c1sc2ccccc2c1Cl | inconclusive: 96% |
| O=C(Nc1ccc(N2CCOCC2)nc1)c1ccc(C(F)(F)F)cc1 | inconclusive: 94% |
| Cc1cc(C)nc(NC(=O)COc2cc(Cl)cc(Cl)c2)n1 | inconclusive: 108% |
| O=C(N/N=C\c1ccc(F)cc1)c1cc(OCC(F)(F)F)ccc1OCC(F)(F)F | inconclusive: 105% |
| N#CC(C#N)=Cc1ccc(-c2ccc(S(=O)(=O)N=C(N)N)cc2)o1 | inconclusive: 90% |
| CCCC(CCC(=O)Nc1cc([N+](=O)[O-])ccc1O)C(=O)O (stereo not given) | inconclusive: 90% |
| N#CCCN(C(=O)COC(=O)c1cccc(S(=O)(=O)Nc2ccc([N+](=O)[O-])cc2)c1)c1ccccc1 | inconclusive: 91% |
| O=C(N/N=C/c1ccc(-c2ccccc2[N+](=O)[O-])o1)[C@H]1C[C@@H]1c1ccccc1 | inconclusive: 94% |
| O=C1CS/C(=N/N=C2C3CC4CC(C3)CC2C4)N1 | inconclusive: 137% |
| O=C(Nc1nc(-c2ccc(S(=O)(=O)N3CCCCCC3)cc2)cs1)c1ccccc1 | inconclusive: 93% |
| CCOC(=O)C1=C(c2ccccc2)Nc2nc(C)nn2C1c1cccc(OC)c1OC (stereo not given) | inactive: 104% |
| O=C(O)c1ccc(N2C(=O)/C(=C/c3ccc(-c4ccc([N+](=O)[O-])cc4)o3)C=C2c2ccccc2)cc1 | active: 79% |
| CC(=O)Oc1ccc2c(=O)c(-c3nc4ccccc4s3)coc2c1 | inactive: 97% |
| C/C(=N\OC(=O)c1ccccc1F)c1nccs1 | inconclusive: 107% |
| O=C(Nc1ccc(NC(=O)c2cccs2)cc1)c1ccc(Br)o1 | inconclusive: 101% |

| SMILES | GTP binding activity (% of control) |
| --- | --- |
| O=C1Nc2ccccc2N(O)N1c1cc(-c2ccccc2)[nH]n1 | inconclusive: 93% |
| COc1cc(C)c(S(=O)(=O)N2CCOCC2)cc1C(C)C | inconclusive: 107% |
| O=C(C1CCN(S(=O)(=O)N2CCC3(CC2)OCCO3)CC1)N1CCOCC1 | inconclusive: 101% |
| CC(C)C(C(=O)Nc1cccnc1)N1C(=O)c2ccccc2C1=O (stereo not given) | inconclusive: 104% |
| CCN(c1ccccc1)S(=O)(=O)c1ccc(OC)c(NC(=O)c2cccs2)c1 | inconclusive: 91% |
| CC(=O)N1C(=O)/C(=C2\SC(=S)N(NS(=O)(=O)c3ccc(C)cc3)C2=O)c2ccccc21 | inconclusive: 86% |
| Cc1ccc(/C(O)=C2\C(=O)C(=O)N(CC(C)O)C2c2ccccn2)cc1 (stereo not given) | inactive: 97% |
| O=c1[nH]cnc2c1N=C(c1cccc([N+](=O)[O-])c1)CC(c1ccccc1)N2 (stereo not given) | inactive: 100% |
| Cc1ccc(S(=O)(=O)CCC(=O)Nc2ccc(S(=O)(=O)N(C)C)cc2)cc1 | inactive: 100% |
| O=C(CSc1nnc2c(n1)[nH]c1ccccc12)Nc1ccc(S(=O)(=O)Nc2ncccn2)cc1 | inconclusive: 90% |
| COc1ccc(OC(=O)c2cccc(S(=O)(=O)N3CCCC3)c2)cc1 | inconclusive: 89% |
| O=C(CSc1nnc(-c2ccncc2)n1Cc1ccccc1)NC1CCCc2ccccc21 (stereo not given) | inactive: 101% |
| CCn1c(SCC(=O)NNC(=O)Cc2ccccc2)nnc1-c1ccccc1 | inconclusive: 106% |
| CCOc1ccc2nc(NC3=NC(c4ccc(OC)cc4)CC(=O)N3)nc(C)c2c1 (stereo not given) | inconclusive: 107% |
| COc1ccc(/C=C2\N=C(C)N(c3ccc4ccccc4c3)C2=O)cc1OC | inconclusive: 104% |
| CC(C)(C)NC(=O)COC(=O)c1ccc(S(=O)(=O)N2CCCC2)cc1 | inactive: 100% |
| O=C(Nc1cccc(O)c1)c1cc2nc(-c3ccccc3)cc(-c3ccccc3)n2n1 | inconclusive: 88% |
| Cc1ccc(N2CC(C(=O)NCc3ccc4c(c3)OCO4)CC2=O)cc1C (stereo not given) | inactive: 101% |
| O=C(Nc1cccc(F)c1)C1CC(=O)N(c2ccc(Cl)cc2)C1 (stereo not given) | inconclusive: 102% |
| COc1ccc(-c2cc(CNS(=O)(=O)c3ccccc3)on2)cc1 | inactive: 102% |
| CCN(CC)C(=O)c1oc2ccc(S(=O)(=O)N3CCCCCC3)cc2c1C | inconclusive: 90% |
| CCOC(=O)c1sc2ncn(/N=C/c3cccnc3)c(=O)c2c1C | inconclusive: 113% |
